According to the BET-seq Pho4 binding data (Le et al. 2018):
The other results are listed elsewhere or left out. These are noisy estimates, calculated here from bound and input reads.

Molecular target: T1, Pho4 (S. cerevisiae) (UniProt P07270)
T1 sequence: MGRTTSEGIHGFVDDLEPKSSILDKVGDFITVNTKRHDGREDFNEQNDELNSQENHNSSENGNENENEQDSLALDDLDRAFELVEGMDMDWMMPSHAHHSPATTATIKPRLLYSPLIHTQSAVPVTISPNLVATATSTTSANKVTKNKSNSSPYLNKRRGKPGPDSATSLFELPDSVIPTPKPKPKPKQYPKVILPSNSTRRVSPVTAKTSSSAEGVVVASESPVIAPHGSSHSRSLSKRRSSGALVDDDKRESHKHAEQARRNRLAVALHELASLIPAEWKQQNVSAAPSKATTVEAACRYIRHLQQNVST
Test: relative binding free energy (BET-seq); higher = weaker binding
Conditions: reference: library average

Row | Sequence | relative binding free energy
1 | GTATCCACGTGGGGTT | -0.2 kcal/mol
2 | GGTGGCACGTGGTCTG | -0.14 kcal/mol
3 | GGACTCACGTGGGTAT | 0.07 kcal/mol
4 | AGTCTCACGTGGATGT | 0.18 kcal/mol
5 | GGGGCCACGTGTGCAG | 0 kcal/mol
6 | ATAAGCACGTGGAAGT | -0.02 kcal/mol
7 | GGAAGCACGTGAGGCG | 0.12 kcal/mol
8 | GTCTGCACGTGGACGG | 0.07 kcal/mol
9 | TTAAGCACGTGAAGTG | 0.11 kcal/mol
10 | AGAGTCACGTGCTTTA | 0.17 kcal/mol
11 | CGGGGCACGTGCTGGC | -0.17 kcal/mol
12 | AAGTTCACGTGTTGAC | 0.49 kcal/mol
13 | GTGTACACGTGGGCCG | -0.12 kcal/mol
14 | CTTTACACGTGGATTT | 0.11 kcal/mol
15 | GCGTGCACGTGGTGAA | 0.15 kcal/mol
16 | TCTTTCACGTGACGGG | 0.34 kcal/mol
17 | TGTTCCACGTGGCAGG | 0.06 kcal/mol
18 | GTACTCACGTGTGAGG | 0.19 kcal/mol
19 | TTGGTCACGTGTGGAC | 0.12 kcal/mol
20 | GTAATCACGTGATGCG | 0.26 kcal/mol
21 | GCGGGCACGTGTATAT | 0.07 kcal/mol
22 | TAAAACACGTGGGGTA | -0.09 kcal/mol
23 | AGTATCACGTGTGAGT | 0.16 kcal/mol

Row | Sequence | relative binding free energy
24 | GTTTGCACGTGAACGT | 0.24 kcal/mol
25 | AGTTTCACGTGGAGAT | 0.18 kcal/mol
26 | CTTGACACGTGGGTAT | -0.06 kcal/mol
27 | GGGTTCACGTGCATGA | 0.26 kcal/mol
28 | GATTTCACGTGAATAG | 0.5 kcal/mol
29 | AAGGGCACGTGATTTG | 0.07 kcal/mol
30 | TGTTCCACGTGGTGGC | -0.02 kcal/mol
31 | TGAGGCACGTGTATTT | -0.03 kcal/mol
32 | TCGTGCACGTGTGTCG | 0.02 kcal/mol
33 | TTTCACACGTGGTGAG | 0.08 kcal/mol
34 | AGGGCCACGTGGCGAG | -0.23 kcal/mol
35 | TTATGCACGTGTACGT | -0.05 kcal/mol
36 | GGAGGCACGTGCAGCG | -0.13 kcal/mol
37 | GTAGCCACGTGGTGAT | 0.05 kcal/mol
38 | CACGTCACGTGGGTGT | -0.16 kcal/mol
39 | TTGACCACGTGGTGGT | -0.12 kcal/mol
40 | GAATACACGTGGGATG | -0.01 kcal/mol
41 | AGAATCACGTGTTAAT | 0.15 kcal/mol
42 | AATAGCACGTGGCATG | -0.08 kcal/mol
43 | AAGAGCACGTGAGGAA | 0.25 kcal/mol
44 | CGTGTCACGTGAGGGC | 0.23 kcal/mol
45 | ATTCACACGTGTTTGT | -0.06 kcal/mol
46 | ATTATCACGTGGGACG | 0.13 kcal/mol

Row | Sequence | relative binding free energy
47 | AGATTCACGTGTATGG | 0.34 kcal/mol
48 | CGTGGCACGTGAGTTT | 0.17 kcal/mol
49 | GGTATCACGTGCAGTG | 0.24 kcal/mol
50 | GGGCGCACGTGAGCTG | 0.09 kcal/mol
51 | TTTAGCACGTGGAATG | 0.03 kcal/mol
52 | TATAACACGTGGGTTT | -0.15 kcal/mol
53 | TTCTACACGTGTTATG | 0.03 kcal/mol
54 | GCTTTCACGTGAGGCG | 0.34 kcal/mol
55 | TGAAACACGTGCTTGT | 0.14 kcal/mol
56 | GTTTCCACGTGTATTT | 0.1 kcal/mol
57 | GGAGTCACGTGGGTAG | 0.07 kcal/mol
58 | AGTGTCACGTGCTGAT | -0.06 kcal/mol
59 | TTTTTCACGTGAATAT | 0.47 kcal/mol
60 | GGGTTCACGTGTAATG | 0.4 kcal/mol
61 | ATATCCACGTGTGTTT | 0 kcal/mol
62 | GAATTCACGTGGTGAG | 0.28 kcal/mol
63 | ATTAGCACGTGAAAGG | 0.24 kcal/mol
64 | CCCGTCACGTGGGGTG | -0.08 kcal/mol
65 | TTTGGCACGTGACGGA | -0.18 kcal/mol
66 | ATATTCACGTGCTGGA | 0.28 kcal/mol
67 | TAGGCCACGTGGAGGT | -0.1 kcal/mol
68 | AGCAGCACGTGGAAGG | 0.09 kcal/mol
69 | GGTTGCACGTGGAAAT | 0.14 kcal/mol

Row | Sequence | relative binding free energy
70 | GATGACACGTGGGCTG | -0.09 kcal/mol
71 | ATCGGCACGTGGATGT | 0 kcal/mol
72 | GTCGTCACGTGATATG | 0.24 kcal/mol
73 | TCGCGCACGTGTTTGT | -0.14 kcal/mol
74 | CTATGCACGTGATTGG | 0.15 kcal/mol
75 | ATGTGCACGTGTCGAG | 0.05 kcal/mol
76 | GGGCTCACGTGAAGTG | 0.34 kcal/mol
77 | GTCGGCACGTGGTGCG | -0.17 kcal/mol
78 | ATCTTCACGTGGATTT | 0.32 kcal/mol
79 | TTGTGCACGTGCAGCG | -0.11 kcal/mol
80 | ATATACACGTGGGGAA | -0.1 kcal/mol
81 | CGGTTCACGTGTTAAG | 0.24 kcal/mol
82 | TGTTCCACGTGGGGAC | 0.03 kcal/mol
83 | GGTTTCACGTGCAGGA | 0.36 kcal/mol
84 | GGGACCACGTGTTTGT | -0.12 kcal/mol
85 | TCATGCACGTGTTTGG | -0.06 kcal/mol
86 | GGTGCCACGTGCGTTT | -0.13 kcal/mol
87 | TTCAACACGTGTTGGG | 0.13 kcal/mol
88 | AGGGGCACGTGAACTT | 0.1 kcal/mol
89 | ATCGGCACGTGGTCAT | -0.03 kcal/mol
90 | AGGGACACGTGATTGG | 0.12 kcal/mol
91 | GTTTACACGTGGAGAG | 0.11 kcal/mol
92 | TATGACACGTGTCTGG | -0.05 kcal/mol

Row | Sequence | relative binding free energy
93 | TTATGCACGTGGGACG | -0.17 kcal/mol
94 | TTAGTCACGTGTGCTG | 0.08 kcal/mol
95 | CTAGGCACGTGGGCAG | -0.35 kcal/mol
96 | AATGTCACGTGGGCAG | -0.02 kcal/mol
97 | AGGGGCACGTGGCGTA | -0.37 kcal/mol
98 | TGTTTCACGTGTAGCA | 0.14 kcal/mol
99 | AGTCGCACGTGGTTGT | -0.16 kcal/mol
100 | TAGGACACGTGTTGGG | 0.07 kcal/mol
101 | AGGAGCACGTGGCGTT | -0.14 kcal/mol
102 | TTCAACACGTGGGGAA | 0.05 kcal/mol
103 | GGGTCCACGTGACGGT | 0.15 kcal/mol
104 | GGTCACACGTGGAGTT | 0.06 kcal/mol
105 | GGCGGCACGTGTAGCT | 0.12 kcal/mol
106 | ATTCGCACGTGCTGTT | -0.14 kcal/mol
107 | GGTAGCACGTGTGCAT | -0.12 kcal/mol
108 | TACTTCACGTGGTGGG | 0.17 kcal/mol
109 | CGTGTCACGTGATGCG | 0.19 kcal/mol
110 | GTTTACACGTGGTTTT | 0.11 kcal/mol
111 | TGGTCCACGTGAAAGG | 0.33 kcal/mol
112 | CGTTTCACGTGATGTG | 0.25 kcal/mol
113 | GGTCTCACGTGGGATG | 0.1 kcal/mol
114 | TGCGGCACGTGAGCGG | 0.24 kcal/mol
115 | TATAACACGTGATTTG | 0.16 kcal/mol
